Assay results taken from PMC4336329 (PLoS ONE, 2015).
In all, about 310,000 compounds went through this assay and about 2,200 (0.71%) showed an effect of 50% or more. Effects have a minus sign here. This is one part of the list.

These molecules were tested against human ether-à-go-go-related gene (hERG) potassium channel (human, UniProt Q12809) (assay: primary screen, population patch clamp on CHO cells stably expressing hERG).
Chain of human ether-à-go-go-related gene (hERG) potassium channel (Q12809 whole entry, looked up): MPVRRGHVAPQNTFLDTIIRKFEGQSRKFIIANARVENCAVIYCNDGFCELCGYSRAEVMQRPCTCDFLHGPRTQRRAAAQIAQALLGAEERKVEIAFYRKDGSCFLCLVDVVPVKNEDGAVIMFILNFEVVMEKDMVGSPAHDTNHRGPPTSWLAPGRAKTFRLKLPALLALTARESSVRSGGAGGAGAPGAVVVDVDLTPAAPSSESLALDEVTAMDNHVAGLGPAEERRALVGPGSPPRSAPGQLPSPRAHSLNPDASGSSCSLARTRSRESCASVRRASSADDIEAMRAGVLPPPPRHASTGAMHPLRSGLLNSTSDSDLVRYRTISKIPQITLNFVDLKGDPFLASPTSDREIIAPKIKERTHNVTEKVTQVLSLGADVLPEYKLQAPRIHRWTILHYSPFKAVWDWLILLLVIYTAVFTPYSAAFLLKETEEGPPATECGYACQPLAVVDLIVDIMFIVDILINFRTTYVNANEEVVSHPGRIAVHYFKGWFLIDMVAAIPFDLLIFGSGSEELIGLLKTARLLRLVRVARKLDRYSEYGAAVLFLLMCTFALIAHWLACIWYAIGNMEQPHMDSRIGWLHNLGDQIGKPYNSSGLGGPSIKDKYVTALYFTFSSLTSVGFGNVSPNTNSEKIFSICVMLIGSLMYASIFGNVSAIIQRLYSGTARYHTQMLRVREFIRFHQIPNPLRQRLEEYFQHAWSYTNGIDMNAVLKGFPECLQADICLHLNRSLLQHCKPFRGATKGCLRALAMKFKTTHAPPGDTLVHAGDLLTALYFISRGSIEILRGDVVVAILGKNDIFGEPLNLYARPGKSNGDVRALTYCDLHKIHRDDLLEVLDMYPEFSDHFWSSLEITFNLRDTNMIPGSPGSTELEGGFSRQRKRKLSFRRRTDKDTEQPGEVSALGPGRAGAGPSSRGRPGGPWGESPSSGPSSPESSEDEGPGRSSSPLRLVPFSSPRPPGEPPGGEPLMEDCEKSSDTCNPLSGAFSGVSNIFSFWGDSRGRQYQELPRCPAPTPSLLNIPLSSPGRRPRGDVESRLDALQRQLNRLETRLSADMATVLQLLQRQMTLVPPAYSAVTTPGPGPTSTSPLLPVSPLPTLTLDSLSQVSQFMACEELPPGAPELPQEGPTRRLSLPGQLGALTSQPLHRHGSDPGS

Compound | hERG current change (%, negative = inhibition) at 1uM
COC(=O)C1CCN(C(=O)c2cc(-c3ccc(Cl)s3)nc3ccccc23)CC1 | -0.0413%
Cl.O=C(Nc1nc2n(n1)C(c1ccccc1)C=C(c1ccccc1)N2)c1ccco1 (stereo not shown) | 4.12%
c1ccn2cc(-c3ccc4c(c3)OCCO4)nc2c1 | 4.22%
Oc1c(N=NC(=S)Nc2ccccc2F)c2ccccc2n1Cc1ccccc1 | 20.3%
CCc1ccc(C(O)(CC(C)C)C(CN2CCOCC2)c2ccccc2)cc1.Cl (stereo not shown) | 13.1%
CN(C)c1ccc(C(CNC(=O)c2ccccc2F)c2c[nH]c3ccccc23)cc1 (stereo not shown) | -7%
Clc1ccc(C2=Nn3c(Cn4nnc5ccccc54)nnc3SC2)cc1 | 15.3%
COc1ccc(Cn2c(CCC(=O)NCc3ccco3)nc3cccnc32)cc1 | -0.605%
Cc1cc(C)n(CC(=O)c2cccc(N)c2)n1 | 10.6%
CC1CCCN(C(=O)CNC(=O)c2ccco2)C1 (stereo not shown) | 8.22%
Cc1ccc(S(=O)(=O)CCC(=O)OCC(=O)Nc2ncc(Cl)cc2Cl)cc1 | 4.52%
O=C(Oc1ccc(Cl)cc1)N1CCOCC1 | 13.3%
COc1ccc2cc3[n+](cc2c1OC)CCc1cc2c(cc1-3)OCO2.Cl | 12%
COC(=O)c1ccc(NC(=O)c2ccc(NC(=O)c3ccco3)cc2)cc1 | 20.7%
C[N+](C)(C)CCOP(=O)([O-])OP(=O)([O-])OC[C@H]1O[C@@H](n2ccc(N)nc2=O)[C@H](O)[C@@H]1O.[Na+] | 13.3%
CCCCNc1nc(NC)nc(Cl)c1SC | 7.23%
CC(C)n1c(C(=O)OCC(=O)NCc2ccc3c(c2)OCO3)cc2sccc21 | 22.5%
CCc1ccc(N(CC(=O)NCc2ccco2)C(=O)CCC(=O)Nc2nccs2)cc1 | 9.83%
CCOC(=O)CC1C(=O)NCCN1S(=O)(=O)c1ccc(Cl)cc1 (stereo not shown) | -3.23%
COc1ccc(NC(=O)n2ncc3cc(Cl)ccc32)cc1OC | 21.5%
CCCc1cc(=O)[nH]c(SCC(=O)Nc2ncc(S(=O)(=O)c3ccc([N+](=O)[O-])cc3)s2)n1 | 5.75%
COc1ccc2[nH]c(=O)c(CN(Cc3cccs3)C(=S)NCC3CCCO3)cc2c1 (stereo not shown) | 4.53%
CCc1ccc(NC(=O)N(CCN2CCOCC2)Cc2ccc3c(c2)CCCN3CC)cc1 | -4.1%
CN1CCN(C(=O)/C=C/c2ccc(Cl)cc2)CC1 | -10.4%
O=C1CN(C(=O)NCCC(=O)NC2CCCCC2)c2ccccc2N1 | -0.472%
COc1cccc(C2=CC(=O)CC(C)(C)C2)c1OC | 3.81%
O=C(CSc1nc2cc(Cl)ccc2s1)c1ccco1 | 8.73%
CCOc1ccc(NC(=O)C2CCCN2C(=O)NC2CCCCC2)cc1 (stereo not shown) | 4.63%

Compound | hERG current change (%, negative = inhibition) at 1uM
Cc1cccc([C@@H]2[C@@H]3C(=O)N(Cc4ccccc4)C(=O)[C@@H]3[C@]3(Cc4ccccc4)C(=O)N(c4ccc(C(F)(F)F)cc4)C(=O)N23)c1 | 7.92%
CCCCc1nc(N2CCNCC2)c(C#N)c2c1CSC(C)(C)C2 | -22.2%
COc1ccc(S(=O)(=O)N2CCCC(C(=O)NC3CC3)C2)cc1Cl (stereo not shown) | 14%
c1ccc(N2CCN(c3nnnn3-c3ccccc3)CC2)cc1 | -0.0293%
O=C1N(Cc2ccc(F)cc2Cl)c2ccccc2C12OCCCO2 | -0.0384%
COc1ccccc1N(CC(=O)NCCc1ccccc1)S(C)(=O)=O | 16.5%
COc1ccccc1N1CCN(C(=O)CN(C)S(=O)(=O)c2cc(C)ccc2OC)CC1 | 5.55%
COc1ccc(C2=NN3C(C2)c2ccccc2OC32C(=O)N(C)c3ccccc32)cc1 (stereo not shown) | 6.07%
CNC(=S)NNC(=O)c1ccc2c(c1)OCO2 | 13.4%
CC1CCN(S(=O)(=O)c2cccc(C(=O)Nc3ccccc3)c2)CC1 | -1.01%
NC(=O)C1CCN(c2ccc([N+](=O)[O-])cc2Cl)CC1 | 14.5%
Cc1nc(NCc2ccc3c(c2)OCO3)c2nnn(Cc3ccccc3)c2n1 | 13.3%
CCOC(=O)c1cc(NC(=O)OC)c(C)nc1C | 9.79%
Cn1nccc1C(=O)N1CCCC(N2CCN(Cc3ccc4c(c3)OCO4)CC2)C1 (stereo not shown) | 7.44%
COc1ccc(CCN2CC(C(=O)NCCN3CCNC3=O)CCC2=O)cc1 (stereo not shown) | 5.52%
c1ccc(N2CCN(Cc3nnnn3C3CCCCC3)CC2)cc1 | 8.27%
CC(C)(C)OC(=O)N1CC(O)CC1C(=O)OCC(=O)c1ccccc1 (stereo not shown) | 4.69%
O=C(Nc1ccc(N2C(=O)C3C4C=CC(C4)C3C2=O)cc1Cl)c1cccs1 (stereo not shown) | 9.99%
CCOCCCNCC(=O)Nc1ccccc1N1CCOCC1.O=C(O)C(=O)O | -5.77%
O=C(Nc1ccc(-c2n[nH]c(=S)o2)cc1)c1ccccc1Br | 15%
O=C(Cc1ccc(-n2cccc2)cc1)NCc1cccs1 | 3.78%
Cc1ccc(S(=O)(=O)N2[C@@H](c3ccc(Cl)cc3)C(C(=O)O)=CC[C@H]2c2cccc(C)c2)cc1 | 15.3%
COc1ccc(CCN2C(=O)CC(NCCc3ccc(S(N)(=O)=O)cc3)C2=O)cc1OC (stereo not shown) | 13.9%
CCC1CSC(Nc2ccc(C(=O)/C=C/c3ccc(Br)cc3)cc2)=N1 (stereo not shown) | 4.9%
C/C(=N\NC(=S)NC1CCCCC1)c1ccc(O)cc1 | -4.36%
Cc1ccc(N2C(=O)CC(Nc3cccc4ccccc34)C2=O)cc1 (stereo not shown) | 17.9%
O=C(NCCCn1ccnc1)/C(=C\c1cccs1)NC(=O)c1ccccc1 | -19.1%
